From the antibiotic and cytotoxicity screens of Wong et al. (2023)
Some of the results follow.

Tests used:
HSkMC = human skeletal muscle cells; assay: cytotoxicity call (relative viability < 0.9); settings: 10 µM
HepG2 = assay: cytotoxicity call (relative viability < 0.9); settings: 10 µM
S. aureus RN4220 = assay: growth inhibition call (relative growth <= 0.2); settings: 50 µM

Question: Which results are given for `CN(C)CC(=O)N[C@H]1CC[C@H](CCNC(=O)C2CCC2)O[C@@H]1CO`?
Answer: cytotoxicity call (HSkMC): inactive; cytotoxicity call (HepG2): inactive; growth inhibition call (S. aureus RN4220): inactive

Question: What does the source list for `C[C@@H]1CN([C@H](C)CO)C(=O)Cc2cc(NC(=O)Cn3cnnn3)ccc2O[C@H]1CN(C)C(=O)Nc1ccc2c(c1)OCO2`?
Answer: cytotoxicity call (HSkMC): inactive; cytotoxicity call (HepG2): inactive; growth inhibition call (S. aureus RN4220): inactive

Question: How did the cytotoxicity call (HSkMC) turn out when `CC(=O)O[C@@H]1[C@H]2OC(C)(C)O[C@H]2O[C@@H]1[C@@H](O)CO` was run?
Answer: inactive

Question: And the cytotoxicity call (HepG2)?
Answer: inactive

Question: What about the growth inhibition call (S. aureus RN4220) of the same compound?
Answer: inactive

Question: With `C[C@H]1CN([C@@H](C)CO)C(=O)c2cc(-c3ccncc3)cnc2O[C@H]1CN(C)C(=O)Nc1ccc2c(c1)OCO2` as the compound, how does the cytotoxicity call (HSkMC) read?
Answer: inactive

Question: And the cytotoxicity call (HepG2)?
Answer: inactive

Question: What about the growth inhibition call (S. aureus RN4220) of the same compound?
Answer: inactive

Question: `C[C@@H]1CCCCO[C@H](CN(C)C(=O)Nc2cccc3ccccc23)[C@@H](C)CN([C@@H](C)CO)C(=O)c2cc(NC(=O)c3ccccc3)ccc2O1` was tested. Which cytotoxicity call (HSkMC) did it give?
Answer: inactive

Question: What about the cytotoxicity call (HepG2) of the same compound?
Answer: inactive

Question: What about the growth inhibition call (S. aureus RN4220) of the same compound?
Answer: inactive

Question: What does the source list for `C[C@@H]1CN([C@@H](C)CO)C(=O)c2cc(NC(=O)Nc3ccc(F)cc3)ccc2O[C@@H](C)CCCCO[C@@H]1CN(C)S(=O)(=O)c1ccc(Cl)cc1`?
Answer: cytotoxicity call (HSkMC): inactive; cytotoxicity call (HepG2): inactive; growth inhibition call (S. aureus RN4220): inactive

Question: What does the source list for `O=C(CN1CCOCC1)N[C@H]1CC[C@H](CCNC(=O)C2CCCCC2)O[C@@H]1CO`?
Answer: cytotoxicity call (HSkMC): inactive; cytotoxicity call (HepG2): inactive; growth inhibition call (S. aureus RN4220): inactive

Question: What does the source list for `COc1ccc(CN(C)C[C@@H]2Oc3ccc(NC(=O)Nc4cccc5ccccc45)cc3C(=O)N([C@@H](C)CO)C[C@@H]2C)cc1`?
Answer: cytotoxicity call (HSkMC): inactive; cytotoxicity call (HepG2): inactive; growth inhibition call (S. aureus RN4220): inactive

Question: How did the cytotoxicity call (HSkMC) turn out when `C[C@H](CO)N1C[C@H](C)[C@H](CN(C)C(=O)c2cc(Cl)cc(Cl)c2)OCc2ccccc2-c2c(n(C)c3ccccc23)C1=O` was run?
Answer: inactive

Question: And the cytotoxicity call (HepG2)?
Answer: inactive

Question: What about the growth inhibition call (S. aureus RN4220) of the same compound?
Answer: inactive

Question: For `C[C@@H]1CN([C@@H](C)CO)C(=O)c2cc(NC(=O)Nc3ccc(C(F)(F)F)cc3)ccc2O[C@H]1CN(C)Cc1ccc(Oc2ccccc2)cc1`, which cytotoxicity call (HSkMC) is on record?
Answer: active

Question: What about the cytotoxicity call (HepG2) of the same compound?
Answer: active

Question: What about the growth inhibition call (S. aureus RN4220) of the same compound?
Answer: inactive

Question: `C[C@H]1CC=CC[C@H](c2cccc(Cl)c2)NC(=O)[C@@H](Cc2ccccc2)N(C)C(=O)c2ccccc2O1` was tested. Which cytotoxicity call (HSkMC) did it give?
Answer: inactive

Question: What about the cytotoxicity call (HepG2) of the same compound?
Answer: inactive

Question: And the growth inhibition call (S. aureus RN4220)?
Answer: inactive

Question: `C[C@@H]1CN([C@H](C)CO)C(=O)c2cccc(NS(=O)(=O)c3ccc(F)cc3)c2O[C@H]1CN(C)C(=O)Nc1ccc(C(F)(F)F)cc1` was tested. Which cytotoxicity call (HSkMC) did it give?
Answer: inactive

Question: And the cytotoxicity call (HepG2)?
Answer: inactive

Question: What about the growth inhibition call (S. aureus RN4220) of the same compound?
Answer: inactive

Question: How did the cytotoxicity call (HSkMC) turn out when `C[C@@H]1CN([C@H](C)CO)C(=O)c2cccc(NC(=O)NC3CCCCC3)c2O[C@@H]1CN(C)Cc1ccc(C(=O)Nc2ccccc2N)cc1` was run?
Answer: inactive

Question: What about the cytotoxicity call (HepG2) of the same compound?
Answer: inactive

Question: And the growth inhibition call (S. aureus RN4220)?
Answer: inactive

Question: `COc1ccc(NC(=O)N(C)C[C@@H]2Oc3c(NC(=O)CCCCCC(=O)Nc4ccccc4N)cccc3C(=O)N([C@H](C)CO)C[C@H]2C)cc1` was tested. Which cytotoxicity call (HSkMC) did it give?
Answer: inactive

Question: What about the cytotoxicity call (HepG2) of the same compound?
Answer: inactive

Question: What about the growth inhibition call (S. aureus RN4220) of the same compound?
Answer: inactive

Question: What does the source list for `Cc1ccc(S(=O)(=O)Nc2ccc3c(c2)C(=O)N([C@H](C)CO)C[C@@H](C)[C@H](CN(C)CC2CC2)O3)cc1`?
Answer: cytotoxicity call (HSkMC): inactive; cytotoxicity call (HepG2): inactive; growth inhibition call (S. aureus RN4220): inactive

Question: What does the source list for `CO[C@H]1C[C@@H](C[C@@H](C)[C@H]2CC(=O)[C@@H](C)/C=C(\C)[C@@H](O)[C@@H](OC)C(=O)[C@@H](C)C[C@@H](C)/C=C/C=C/C=C(\C)[C@H](OC)C[C@H]3CC[C@@H](C)[C@@](O)(O3)C(=O)C(=O)N3CCCC[C@@H]3C(=O)O2)CC[C@@H]1O`?
Answer: cytotoxicity call (HSkMC): inactive; cytotoxicity call (HepG2): inactive; growth inhibition call (S. aureus RN4220): inactive

Question: `O=C1NC(=O)C(c2cnc3ccccn23)=C1c1cn2c3c(cc(F)cc13)CN(C(=O)N1CCCCC1)CC2` was tested. Which cytotoxicity call (HSkMC) did it give?
Answer: inactive

Question: And the cytotoxicity call (HepG2)?
Answer: active

Question: What about the growth inhibition call (S. aureus RN4220) of the same compound?
Answer: inactive

Question: Which cytotoxicity call (HSkMC) does the source give for `C[C@@H]1CN([C@@H](C)CO)C(=O)c2cc(C#CCN(C)C)cnc2O[C@@H]1CN(C)C(=O)Nc1cc(F)ccc1F` here?
Answer: inactive

Question: What about the cytotoxicity call (HepG2) of the same compound?
Answer: inactive

Question: What about the growth inhibition call (S. aureus RN4220) of the same compound?
Answer: inactive

Question: For `COc1ccc(NC(=O)N(C)C[C@@H]2Oc3c(NC(=O)C4CC4)cccc3C(=O)N([C@@H](C)CO)C[C@@H]2C)cc1`, which cytotoxicity call (HSkMC) is on record?
Answer: inactive

Question: What about the cytotoxicity call (HepG2) of the same compound?
Answer: inactive

Question: What about the growth inhibition call (S. aureus RN4220) of the same compound?
Answer: inactive

Question: Which cytotoxicity call (HSkMC) does the source give for `C[C@H](CO)N1C[C@H](C)[C@@H](CN(C)Cc2ccc(C(F)(F)F)cc2)Oc2ccc(NC(=O)Nc3ccc(C(F)(F)F)cc3)cc2C1=O` here?
Answer: inactive

Question: What about the cytotoxicity call (HepG2) of the same compound?
Answer: inactive

Question: And the growth inhibition call (S. aureus RN4220)?
Answer: inactive

Question: What does the source list for `COc1ccccc1O[C@@H](C)C(=O)NN`?
Answer: cytotoxicity call (HSkMC): inactive; cytotoxicity call (HepG2): inactive; growth inhibition call (S. aureus RN4220): inactive

Question: Which cytotoxicity call (HSkMC) does the source give for `CC(=O)OC1CC2C(C)(C)C(=O)CCC2(C)C2CCC3(C)C(c4ccoc4)OC(=O)C4OC43C12C` (stereo not drawn) here?
Answer: inactive

Question: What about the cytotoxicity call (HepG2) of the same compound?
Answer: inactive

Question: And the growth inhibition call (S. aureus RN4220)?
Answer: inactive

Question: Which results are given for `C[C@@H]1CN([C@H](C)CO)C(=O)Cc2cc(NC(=O)Cn3cnnn3)ccc2O[C@@H]1CN(C)Cc1ccc(-c2ccccc2)cc1`?
Answer: cytotoxicity call (HSkMC): inactive; cytotoxicity call (HepG2): inactive; growth inhibition call (S. aureus RN4220): inactive

Question: Which results are given for `NC(=O)c1cc(Cl)ccn1`?
Answer: cytotoxicity call (HSkMC): inactive; cytotoxicity call (HepG2): inactive; growth inhibition call (S. aureus RN4220): inactive

Question: With `C[C@@H]1CN([C@H](C)CO)C(=O)c2cc(NC(=O)Nc3cccc4ccccc34)ccc2O[C@@H](C)CCCCO[C@H]1CN(C)Cc1ccccc1` as the compound, how does the cytotoxicity call (HSkMC) read?
Answer: inactive

Question: And the cytotoxicity call (HepG2)?
Answer: active

Question: And the growth inhibition call (S. aureus RN4220)?
Answer: inactive

Question: `COc1ccc(NC(=O)N(C)C[C@H]2OCCCC[C@@H](C)Oc3ccc(NC(=O)Cc4ccccc4)cc3C(=O)N([C@@H](C)CO)C[C@H]2C)cc1` was tested. Which cytotoxicity call (HSkMC) did it give?
Answer: inactive

Question: What about the cytotoxicity call (HepG2) of the same compound?
Answer: inactive

Question: What about the growth inhibition call (S. aureus RN4220) of the same compound?
Answer: inactive
